Experimental data from publication PMC4199508.
Results are given in words; binding and its absence hold for the method and conditions named. In cells and extracts the contact can be indirect. Some results given as binding are weak or reduced against the parent protein; the word gives no strength. Where a sequence is shown, tags or fusion partners need not be part of it.

Assays:
Assay in all cases: co-IP; fission yeast cell extracts; lysis and wash buffer 50 mM Tris pH 8.0, 150 mM NaCl, 10% glycerol, 5 mM EDTA, 0.5% NP40; IP with anti-myc or anti-FLAG and Dynabeads Protein G, western blot; Tpz1-Pot1 also in ccq1Δ poz1Δ cells (anti-myc IP of Tpz1-myc)
[1] = molecular target: T1, Tpz1-Y439R,L445R (myc-tagged, expressed in fission yeast) (Schizosaccharomyces pombe) (UniProt O14246)
T1 sequence: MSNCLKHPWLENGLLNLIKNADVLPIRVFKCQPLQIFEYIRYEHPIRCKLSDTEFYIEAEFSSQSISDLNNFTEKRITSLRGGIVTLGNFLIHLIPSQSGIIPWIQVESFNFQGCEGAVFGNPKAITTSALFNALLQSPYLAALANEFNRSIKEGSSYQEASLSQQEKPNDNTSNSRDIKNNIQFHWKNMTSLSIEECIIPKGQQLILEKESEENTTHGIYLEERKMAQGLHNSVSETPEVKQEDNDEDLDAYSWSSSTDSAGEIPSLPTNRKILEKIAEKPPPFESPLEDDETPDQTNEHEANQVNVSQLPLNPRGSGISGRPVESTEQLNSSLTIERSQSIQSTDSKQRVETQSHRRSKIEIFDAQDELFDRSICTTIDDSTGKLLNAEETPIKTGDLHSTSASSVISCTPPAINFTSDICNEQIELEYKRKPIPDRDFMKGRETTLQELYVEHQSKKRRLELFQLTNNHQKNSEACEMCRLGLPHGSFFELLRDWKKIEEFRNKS

[2] = molecular target: T2, Tpz1-L449R (myc-tagged, expressed in fission yeast) (Schizosaccharomyces pombe) (UniProt O14246)
T2 sequence: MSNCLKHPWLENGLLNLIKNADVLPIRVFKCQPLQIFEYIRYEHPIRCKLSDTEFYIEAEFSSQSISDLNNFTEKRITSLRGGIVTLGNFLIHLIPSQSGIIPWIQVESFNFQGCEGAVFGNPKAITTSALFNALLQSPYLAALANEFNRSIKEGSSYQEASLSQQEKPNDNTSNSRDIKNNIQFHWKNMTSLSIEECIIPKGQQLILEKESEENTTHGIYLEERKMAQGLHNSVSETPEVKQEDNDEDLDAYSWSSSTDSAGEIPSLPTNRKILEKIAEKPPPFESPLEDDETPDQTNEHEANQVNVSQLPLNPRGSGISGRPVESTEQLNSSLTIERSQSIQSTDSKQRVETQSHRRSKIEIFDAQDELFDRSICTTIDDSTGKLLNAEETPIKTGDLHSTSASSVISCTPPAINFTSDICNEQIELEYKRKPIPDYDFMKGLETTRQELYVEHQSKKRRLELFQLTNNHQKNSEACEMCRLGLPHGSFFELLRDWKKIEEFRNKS

[3] = molecular target: T3, Tpz1-[1–485] (C-terminally truncated Tpz1, myc-tagged, expressed in fission yeast) (Schizosaccharomyces pombe) (UniProt O14246)
T3 sequence: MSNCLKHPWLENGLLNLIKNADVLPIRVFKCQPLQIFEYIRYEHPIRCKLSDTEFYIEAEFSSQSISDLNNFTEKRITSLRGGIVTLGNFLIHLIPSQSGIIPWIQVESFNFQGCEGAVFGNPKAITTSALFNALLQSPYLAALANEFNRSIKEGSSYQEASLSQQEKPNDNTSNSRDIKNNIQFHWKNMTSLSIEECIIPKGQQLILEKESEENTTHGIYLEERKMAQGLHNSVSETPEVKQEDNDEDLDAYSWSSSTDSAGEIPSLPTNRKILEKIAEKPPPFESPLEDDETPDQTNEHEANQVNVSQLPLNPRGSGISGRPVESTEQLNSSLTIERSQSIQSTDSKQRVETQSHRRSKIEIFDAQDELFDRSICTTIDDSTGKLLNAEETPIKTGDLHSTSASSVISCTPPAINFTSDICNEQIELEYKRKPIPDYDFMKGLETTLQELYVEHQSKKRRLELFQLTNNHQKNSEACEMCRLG

[4] = molecular target: T4, Tpz1-myc (full length Tpz1, Tpz1-FL, expressed in fission yeast) (Schizosaccharomyces pombe) (UniProt O14246)
T4 sequence: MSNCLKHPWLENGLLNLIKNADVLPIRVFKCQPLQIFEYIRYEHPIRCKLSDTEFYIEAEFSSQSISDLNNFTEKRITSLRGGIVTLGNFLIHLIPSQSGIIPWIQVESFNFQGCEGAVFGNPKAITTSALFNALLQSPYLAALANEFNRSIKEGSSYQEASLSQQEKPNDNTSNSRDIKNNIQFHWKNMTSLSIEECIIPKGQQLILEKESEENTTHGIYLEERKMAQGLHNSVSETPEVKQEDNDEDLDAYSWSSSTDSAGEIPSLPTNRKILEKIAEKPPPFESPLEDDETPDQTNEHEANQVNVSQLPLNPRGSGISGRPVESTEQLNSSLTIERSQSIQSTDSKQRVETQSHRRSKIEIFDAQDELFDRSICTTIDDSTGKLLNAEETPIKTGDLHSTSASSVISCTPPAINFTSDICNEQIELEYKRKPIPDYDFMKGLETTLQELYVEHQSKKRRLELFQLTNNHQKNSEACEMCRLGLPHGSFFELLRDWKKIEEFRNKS

Measured: binding

B1: Pot1-FLAG (expressed in fission yeast) (protein, UniProt O13988 1-555)
chain: MGEDVIDSLQLNELLNAGEYKIGELTFQSIRSSQELQKKNTIVNLFGIVKDFTPSRQSLHGTKDWVTTVYLWDPTCDTSSIGLQIHLFSKQGNDLPVIKQVGQPLLLHQITLRSYRDRTQGLSKDQFRYALWPDFSSNSKDTLCPQPMPRLMKTGDKEEQFALLLNKIWDEQTNKHKNGELLSTSSARQNQTGLSYPSVSFSLLSQITPHQRCSFYAQVIKTWYSDKNFTLYVTDYTENELFFPMSPYTSSSRWRGPFGRFSIRCILWDEHDFYCRNYIKEGDYVVMKNVRTKIDHLGYLECILHGDSAKRYNMSIEKVDSEEPELNEIKSRKRLYVQNCQNGIEAVIEKLSQSQQSENPFIAHELKQTSVNEITAHVINEPASLKLTTISTILHAPLQNLLKPRKHRLRVQVVDFWPKSLTQFAVLSQPPSSYVWMFALLVRDVSNVTLPVIFFDSDAAELINSSKIQPCNLADHPQMTLQLKERLFLIWGNLEERIQHHISKGESPTLAAEDVETPWFDIYVKEYIPVIGNTKDHQSLTFLQKRWRGFGTKIV
binds: all assays above
